Measurements as given in article PMC3017775.
No constants are given. Whether binding was seen depends on the method and setting. Some results given as binding are weak or reduced against the parent protein; the word gives no strength.

Columns and labels:
GAGA1 (Gerbera hybrida) = GAGA1 (Gerbera hybrida) (UniProt Q9ZS30); assay: two-hybrid; binding domain (pDEST32) and activation domain (pDEST22) fusions combined in both directions by mating PJ69-4A and PJ69-4α; selection on SD -Leu -Trp -Ade and SD -Leu -Trp -His + 1, 5 or 10 mM 3-AT; +22°C for 5 days; positive if either direction grew
GAGA2 (Gerbera hybrida) = GAGA2 (Gerbera hybrida) (UniProt Q9ZS29); assay: as above
GRCD2 (Gerbera hybrida) = GRCD2 (Gerbera hybrida) (UniProt Q6EUV7); assay: as above
GSQUA2 (Gerbera hybrida) = target: T1, GSQUA2 (Gerbera hybrida) (UniProt D2T2G0); assay: as above
T1 sequence: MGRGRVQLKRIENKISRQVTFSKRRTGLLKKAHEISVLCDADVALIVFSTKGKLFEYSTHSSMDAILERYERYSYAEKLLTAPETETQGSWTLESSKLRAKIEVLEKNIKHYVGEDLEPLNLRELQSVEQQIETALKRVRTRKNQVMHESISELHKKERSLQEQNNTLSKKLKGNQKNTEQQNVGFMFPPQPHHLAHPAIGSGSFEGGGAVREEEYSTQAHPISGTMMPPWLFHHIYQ

[1] = target: T2, GGLO1/GDEF1 dimer (Gerbera hybrida) (UniProt Q9ZS28+Q9ZS26); assay: yeast three-hybrid; third protein expressed unfused from pARC351 beside binding domain (pDEST32) and activation domain (pDEST22) fusions; selection on SD -Leu -Trp -Ura -Ade and SD -Leu -Trp -Ura -His with 1, 5 and 10 mM, or 10 and 25 mM 3-AT; +22°C for 7 days
T2 sequence 1: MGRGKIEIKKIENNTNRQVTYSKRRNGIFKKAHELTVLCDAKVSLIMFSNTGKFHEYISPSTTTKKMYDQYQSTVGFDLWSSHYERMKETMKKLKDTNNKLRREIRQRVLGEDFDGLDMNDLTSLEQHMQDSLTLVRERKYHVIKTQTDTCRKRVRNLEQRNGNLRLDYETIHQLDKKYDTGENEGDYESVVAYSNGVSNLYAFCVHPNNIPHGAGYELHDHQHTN
T2 sequence 2: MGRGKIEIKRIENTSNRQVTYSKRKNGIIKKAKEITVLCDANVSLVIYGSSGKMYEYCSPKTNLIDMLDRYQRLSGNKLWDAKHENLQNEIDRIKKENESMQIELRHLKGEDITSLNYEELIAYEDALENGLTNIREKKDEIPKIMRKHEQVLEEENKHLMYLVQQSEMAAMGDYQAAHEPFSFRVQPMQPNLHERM

[2] = target: T3, GGLO1/GDEF2 dimer (Gerbera hybrida) (UniProt Q9ZS27+Q9ZS26); assay: as above
T3 sequence 1: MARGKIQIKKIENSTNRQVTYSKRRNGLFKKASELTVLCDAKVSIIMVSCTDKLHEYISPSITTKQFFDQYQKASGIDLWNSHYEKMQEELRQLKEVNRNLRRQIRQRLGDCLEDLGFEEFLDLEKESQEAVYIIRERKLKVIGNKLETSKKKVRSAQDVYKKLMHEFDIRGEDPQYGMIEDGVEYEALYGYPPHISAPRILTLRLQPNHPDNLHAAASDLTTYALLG
T3 sequence 2: T2 sequence 2

GSQUA3 (Gerbera hybrida) = target: T4, GSQUA3 (Gerbera hybrida) (UniProt D2T2G1); assay: two-hybrid; binding domain (pDEST32) and activation domain (pDEST22) fusions combined in both directions by mating PJ69-4A and PJ69-4α; selection on SD -Leu -Trp -Ade and SD -Leu -Trp -His + 1, 5 or 10 mM 3-AT; +22°C for 5 days; positive if either direction grew
T4 sequence: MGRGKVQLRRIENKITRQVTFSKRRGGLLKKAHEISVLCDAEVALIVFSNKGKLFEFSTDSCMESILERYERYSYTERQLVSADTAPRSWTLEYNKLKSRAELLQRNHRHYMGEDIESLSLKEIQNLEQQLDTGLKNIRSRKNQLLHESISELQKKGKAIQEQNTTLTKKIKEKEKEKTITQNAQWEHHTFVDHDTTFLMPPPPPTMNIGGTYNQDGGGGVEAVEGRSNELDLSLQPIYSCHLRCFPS

GDEF2 (Gerbera hybrida) = target: T5, GDEF2 (Gerbera hybrida) (UniProt Q9ZS27); assay: as above
T5 sequence: T3 sequence 1

GDEF1 (Gerbera hybrida) = target: T6, GDEF1 (Gerbera hybrida) (UniProt Q9ZS28); assay: as above
T6 sequence: T2 sequence 1

GSQUA5 (Gerbera hybrida) = GSQUA5 (Gerbera hybrida) (UniProt D2T2G2); assay: as above
GRCD3 (Gerbera hybrida) = GRCD3 (Gerbera hybrida) (UniProt Q6EUV6); assay: as above
GGLO1 (Gerbera hybrida) = target: T7, GGLO1 (Gerbera hybrida) (UniProt Q9ZS26); assay: as above
T7 sequence: T2 sequence 2

GSQUA1 (Gerbera hybrida) = GSQUA1 (Gerbera hybrida) (UniProt Q9ZS25); assay: as above
GRCD1 (Gerbera hybrida) = GRCD1 (Gerbera hybrida) (UniProt Q9FST1); assay: as above

| binding (GAGA1 (Gerbera hybrida)) | binding (GAGA2 (Gerbera hybrida)) | binding (GRCD2 (Gerbera hybrida)) | binding (GSQUA2 (Gerbera hybrida)) | binding [1] | binding [2] | binding (GSQUA3 (Gerbera hybrida)) | binding (GDEF2 (Gerbera hybrida)) | binding (GDEF1 (Gerbera hybrida)) | binding (GSQUA5 (Gerbera hybrida)) | binding (GRCD3 (Gerbera hybrida)) | binding (GGLO1 (Gerbera hybrida)) | binding (GSQUA1 (Gerbera hybrida)) | binding (GRCD1 (Gerbera hybrida)) | Substance |
| --- | --- | --- | --- | --- | --- | --- | --- | --- | --- | --- | --- | --- | --- | --- |
| binds | binds | no binding | binds | binds | binds |  |  |  |  |  |  |  |  | GRCD2 (from UniProt Q6EUV7 1-247) |
| no binding | no binding | no binding | no binding | binds | binds | no binding | no binding | no binding | no binding | no binding | no binding | no binding |  | GRCD3 (from UniProt Q6EUV6 1-247) |
|  | no binding |  |  | binds | binds |  |  |  |  |  |  |  |  | GAGA2 (from UniProt Q9ZS29 1-246) |
| binds | binds | no binding | no binding | no binding | no binding | no binding | no binding | no binding | no binding | no binding |  | no binding | no binding | GRCD1 (from UniProt Q9FST1 1-242) |
|  |  |  |  | no binding | binds |  |  |  | no binding |  |  |  |  | GSQUA5 (from UniProt D2T2G2 1-237) |
|  |  |  | no binding | no binding | binds | no binding |  |  | no binding |  |  | no binding |  | GSQUA1 (from UniProt Q9ZS25 1-210) |
| no binding |  |  |  | binds | binds |  |  |  |  |  |  |  |  | GAGA1 (from UniProt Q9ZS30 1-264) |
